# PubChem BioAssay AID1346428 (National Center for Advancing Translational Sciences (NCATS), 2018)
# Among all 48,000 compounds or so, about 1,200 (2.5%) were called active. Inconclusive results (about 2%) are left out.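 Rule for the calls: active = activation of at least 60% and not above a set upper limit (about 1 call in 100 departs from these limits); inconclusive = activation of 40% to 60%, or above that upper limit; inactive = activation under 40%.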 The list shows a part of the results.
# Biological target: Probable G-protein coupled receptor 32 (Homo sapiens) (UniProt O75388)
# Experiment: qHTS for Agonists of Human Resolvin D1 Receptor DRV1
# Details: CHO-K1 GPR32 beta-arrestin PathHunter luminescence, 90 min; at 76.9 µM; stronger effect = higher value; zero percent set by DMSO-only wells
# Outline: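 Beta-arrestin recruitment read-out: luminescence from complemented beta-Gal in CHO-K1 GPR32 PathHunter cells, measured 1 h after detection reagent at ambient temperature following 90 min compound exposure at 37 °C; DMSO served as basal (EC0) control.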
# Chain of UniProt O75388 (O75388 whole entry, looked up): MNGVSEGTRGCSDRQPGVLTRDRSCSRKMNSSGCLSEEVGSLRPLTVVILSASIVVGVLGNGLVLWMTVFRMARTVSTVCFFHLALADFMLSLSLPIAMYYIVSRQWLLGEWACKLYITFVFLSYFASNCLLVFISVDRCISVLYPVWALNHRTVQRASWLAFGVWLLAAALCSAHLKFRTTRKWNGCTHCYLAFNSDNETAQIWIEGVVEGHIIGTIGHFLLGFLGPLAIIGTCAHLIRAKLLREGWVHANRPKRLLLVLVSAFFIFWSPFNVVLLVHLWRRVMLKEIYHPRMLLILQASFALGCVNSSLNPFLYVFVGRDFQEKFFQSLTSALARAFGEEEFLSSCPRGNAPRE
row,Structure (SMILES),activation
1,CC(C)CC(=O)NCc1nc2cccnc2n1Cc1ccccc1,inactive: 0.0356%
2,CSc1cccc(-c2nnc(NC(=O)c3ccc4c(c3)OCCO4)o2)c1,inactive: -6.85%
3,COc1ccc(-c2ccc(NS(=O)(=O)c3cccc(Cl)c3)cc2)nn1,inactive: 26.3%
4,Cc1ccccc1CNC(=O)c1ccc(Cn2c(SCc3cccc(F)c3)nc3cccnc32)cc1,inactive: -19.3%
5,CCOC(=O)c1nc(Nc2ccc(C(=O)OCC(C)C)cc2)c2ccccc2n1,inactive: 32.4%
6,O=C(CCc1cn(Cc2ccccc2F)c2ccccc12)NCc1ccc(Cl)cc1,inactive: -21.5%
7,COc1ccc(N2CCN(C(=O)c3cc(S(=O)(=O)N4CCCCCC4)cn3C)CC2)cc1,inactive: -17.6%
8,Cc1ccc2oc(C(=O)N(Cc3cccc(F)c3)C3CCS(=O)(=O)C3)c(C)c2c1 (configuration not stated),inactive: -37.8%
9,COc1cccc(Cn2c(=O)n(-c3ccc(C)c(F)c3)c(=O)c3sc4ccccc4c32)c1,inactive: -10.9%
10,COc1cccc(NC(=O)N2CCC(n3c(C)nc4cccnc43)CC2)c1,inactive: 16.2%
11,COc1ccc(-c2cc(=S)ss2)cc1,inactive: -33.8%
12,O=C(NCc1ccccc1Cl)C1CCC(CNS(=O)(=O)c2ccc(Cl)cc2)CC1 (configuration not stated),inactive: -16.6%
13,COc1cccc(OC)c1C(=O)Nc1nnc(C)s1,inactive: -4.23%
14,COc1ccc(CNC(=O)C2CCN(Cc3nc(-c4ccc(OC)c(OC)c4)oc3C)CC2)cc1,inactive: 27.7%
15,Cc1ccc(-c2cc(C(F)(F)F)n3nc(-c4ccc(Cl)cc4)cc3n2)cc1,inactive: 3.39%
16,Cc1cc(C(C)(C)C)c(O)c(C(C)(C)C)c1,inactive: -7.14%
17,O=C(COC(=O)C(Cc1c[nH]c2ccccc12)NC(=O)c1ccc(Br)cc1)c1ccc(Cl)cc1 (configuration not stated),inactive: -24.8%
18,Cc1ccc(N(CC(C)C)S(=O)(=O)c2nnc(NC(=O)c3ccco3)s2)cc1,inactive: 34.7%
19,CCc1cccc(CC)c1NC(=O)C1CCC(CNS(=O)(=O)c2cccc3nsnc23)CC1 (configuration not stated),inactive: -30.5%
20,COc1ccc2cc3cc(C(=O)Nc4cc(C)c(Cl)cc4OC)oc3nc2c1,inactive: 0.0995%
21,Cc1sc2c(c1C)c(=O)n(-c1ccc(Cl)cc1)c(=O)n2Cc1cc(=O)n2cc(Br)ccc2n1,inactive: -5.21%

row,Structure (SMILES),activation
1,COc1cc(Cl)c(NC(=O)c2cc(S(=O)(=O)N3CCCCC3)c[nH]2)c(OC)c1,inactive: -30.1%
2,CC(=O)c1cccc(NS(=O)(=O)c2cc(-c3onc(C)c3C)ccc2C)c1,inactive: -0.961%
3,COc1ccc(NC(=O)CSc2oc(-c3ccc(F)cc3)nc2S(=O)(=O)c2ccc(C)cc2)c(OC)c1,inactive: -1.17%
4,CCOc1ccccc1NC(=O)CSc1nc2c(sc3ccccc32)c(=O)n1CCCC(=O)NC1CCCC1,inactive: -6.61%
5,CCOC(=O)c1c(S(=O)(=O)N2CCCC(C(=O)NCc3ccccc3Cl)C2)c(C)n(C)c1C (configuration not stated),inactive: -5.9%
6,O=C(Nc1ccccc1)N(Cc1c[nH]c2ccccc12)C1CCCCCC1,inactive: -14.3%
7,COc1cccc(CNC(=O)c2ccc(CNS(=O)(=O)c3ccc(C)cc3)cc2)c1,inactive: -10.4%
8,CCN(c1ccccc1)S(=O)(=O)c1nnc(NC(=O)c2ccccc2)s1,inactive: 2.13%
9,Cc1cccc(N2CCN(C(=O)c3cnn(-c4ccccc4Cl)c3C3CCN(C(=O)OC(C)(C)C)CC3)CC2C)c1 (configuration not stated),inactive: -12.5%
10,Cc1cccc(OCc2nc(CC(=O)Nc3ccc(C)cc3C)cs2)c1,inactive: -10.8%
11,COc1ccc(CNCCCSc2nnnn2-c2ccccc2)cc1,inactive: -6.19%
12,CC1CCc2c(sc3nnn(CCCCOc4ccc(Cl)cc4)c(=O)c23)C1 (configuration not stated),inactive: -0.197%
13,COc1ccc(S(=O)(=O)NCCc2sc(-c3cccnc3)nc2C)c(F)c1,inactive: 25.6%
14,CCc1ccc(C2c3c(oc4ccc(F)cc4c3=O)C(=O)N2CCc2ccc(OC)cc2)cc1 (configuration not stated),inactive: 2.49%
15,CCN(CC)CCNC(=O)C(=O)NCC(c1cccnc1)N1CCN(c2ccc(F)cc2)CC1 (configuration not stated),inactive: -1.67%
16,O=C(Nc1ccccc1C(F)(F)F)c1cc(-c2ccc3c(c2)OCCO3)on1,inactive: 4.67%
17,CCOC(=O)c1c(NC(=O)c2cc(OCC)c(OCC)c(OCC)c2)sc2c1CCCCC2,inactive: -24.1%
18,Cc1ccc(CNC(=O)Cn2c(=O)ccc3cc(S(=O)(=O)N4CCC(C)CC4)ccc32)cc1,inactive: -13.2%
19,COc1ccc(-c2cc(C(=O)NC(C)c3ccccc3)c3cc(C(C)C)ccc3n2)cc1 (configuration not stated),inactive: -5.7%
20,Cc1cc(=O)c2cc(C(=O)Nc3ccc(C)c(C)c3)ccc2[nH]1,inactive: 16.3%
21,Cc1nn(-c2ccccc2)c2c1cc1c(=O)[nH]c(=O)nc-1n2-c1cccc(Cl)c1,inactive: -4.67%

row,Structure (SMILES),activation
1,COc1ccccc1/C=C/c1nc(C#N)c(N2CCN(C)CC2)o1,inactive: -8.23%
2,Cc1ccc(CNC(=O)C2CCN(S(=O)(=O)c3cccc4nonc34)CC2)cc1,inactive: -12.6%
3,COc1ccccc1NC(=O)CSc1nnc(NC(=O)NC2CCCCC2)s1,inactive: -0.644%
4,Cc1ccc2oc(C(=O)Nc3ccc(S(=O)(=O)N(C)c4ccccc4)cc3)cc(=O)c2c1,inactive: 2.03%
5,CCc1ccc(NCc2cc3cc4c(cc3n(CC(=O)Nc3ccccc3OC)c2=O)OCCO4)cc1,inactive: -25.4%
6,COc1ccc(C(=O)N2CCC(c3nc4ccccc4s3)CC2)cc1Cl,active: 75.5%
7,Cc1cc(NC(=O)Nc2nnc(N(C)C3CCCCC3)s2)ccc1Br,inactive: -0.749%
8,CC(CC1c2ccccc2CCc2ccccc21)CN(C)C (configuration not stated),inactive: -13.3%
9,Cc1cccc(NC(=O)Cn2ncc3c4ccccc4n(Cc4ccccc4)c3c2=O)c1C,inactive: -10.4%
10,Cc1ccc(S(=O)(=O)CCC(=O)Nc2ccc(OC(F)(F)F)cc2)cc1,inactive: 6.91%
11,CN1C(=O)c2ccccc2C1=O,inactive: 14%
12,O=C(c1ccc2c(c1)N(Cc1ccccc1F)C(=O)c1ccccc1S2(=O)=O)N1CCc2ccccc21,inactive: -46.9%
13,CCC(Sc1nc2ccncc2[nH]1)C(=O)Nc1cc(Cl)ccc1C (configuration not stated),inactive: 18%
14,COc1cc(Cl)c(C)cc1NC(=O)CSc1nc2c(c(=O)[nH]1)CCC2,inactive: 28.5%
15,CCOC(=O)O[C@]1(C(=O)OCCl)CC[C@H]2[C@@H]3CCC4=CC(=O)C=C[C@]4(C)[C@H]3[C@@H](O)C[C@@]21C,inactive: -3.32%
16,CN(C)[C@@H]1C(=O)C(C(N)=O)=C(O)[C@@]2(O)C(=O)C3=C(O)c4c(O)cccc4C[C@H]3C[C@@H]12,inactive: 16%
17,CCc1ccccc1NC(=O)Cn1c(=O)n(CCCCCC(=O)NCc2ccc(C)cc2)c(=O)c2sccc21,inactive: 7.02%
18,CCOC(=O)c1cccc(NC(=O)CC2C(=O)N(c3ccc(Cl)cc3)C(=O)N2C2CCCC2)c1 (configuration not stated),inactive: -16.7%
19,CCc1ccc(S(=O)(=O)c2nnn3c2nc(N2CCOCC2)c2sccc23)cc1,inactive: 1.65%
20,Cc1ccc(N2CC(c3nc(-c4ccc(Cl)cc4)no3)CC2=O)cc1F (configuration not stated),inactive: 6.14%
21,Cc1cc(N2CCC(C(=O)Nc3ccc(F)cc3C)CC2)n2nc(C)c(-c3ccc(Cl)cc3)c2n1,inactive: 16.8%

row,Structure (SMILES),activation
1,Fc1ccc(CN(C2=NCCN2)c2c(Cl)cccc2Cl)cc1,inactive: -3.42%
2,Cc1cc(Br)ccc1NC(=O)C1CCCN(S(=O)(=O)c2cccc3nonc23)C1 (configuration not stated),inactive: 28.4%
3,Cc1cc(-c2ccccc2)n2nc(-c3ccc(Cl)cc3)cc2n1,inactive: -7.48%
4,CCc1ccccc1NC(=O)Nc1cc(C(=O)NCc2cccc(F)c2)ccc1N1CCCC1,inactive: -16.8%
5,CCOC(=O)c1c(NC(=O)COc2ccc(Br)cc2)sc2c1CCCC2,inactive: 12.4%
6,COCCCn1c(=N)c(C(=O)NCc2ccco2)cc2c(=O)n3cccc(C)c3nc21,inactive: 20.4%
7,Cc1oc(-c2cccc(Cl)c2)nc1CN1CCCC(C(=O)NCCc2ccc(Cl)cc2)C1 (configuration not stated),inactive: 5.13%
8,O=C(Cn1ncn2nc(-c3cccs3)cc2c1=O)NCc1ccc(Cl)cc1,inactive: 3.1%
9,CCc1ccc(S(=O)(=O)c2nnn3c2nc(Nc2ccc(C)c(Cl)c2)c2sccc23)cc1,inactive: -4.63%
10,CC(C)CNC(=O)C(=O)Nc1c2c(nn1-c1ccccc1)CS(=O)(=O)C2,inactive: -8.65%
11,CCn1c(SCc2cccc(Br)c2)nnc1-c1nonc1NC(C)=O,inactive: -6.94%
12,CSc1cccc(NC(=O)Cn2c(=O)n(Cc3ccccc3)c(=O)c3sc4ccccc4c32)c1,inactive: 26.9%
13,CCOC(=O)CN1C(C(=O)c2ccccc2)=C(OC(=O)C(C)(C)C)c2ccccc2S1(=O)=O,inactive: 0.978%
14,CC(=O)Nc1cc(C(=O)NCc2ccc(C)cc2)ccc1S(=O)(=O)c1ccc(Cl)cc1,inactive: -7.21%
15,Cc1cc(C)n(-c2nc3cc(Cl)ccc3nc2Nc2ccc(C)c(F)c2)n1,inactive: 15.9%
16,Cc1ccc(-n2ncc(C(=O)NCCN3CCCC3)c2C2CCN(C(=O)OC(C)(C)C)CC2)cc1,inactive: -21.7%
17,Cc1cc(C)c(NC(=O)c2cc(S(=O)(=O)NCCC3=CCCCC3)ccc2F)c(C)c1,inactive: 7.01%
18,CCn1ccc2cc(S(=O)(=O)N3CCC(C(=O)NCc4cccc(Cl)c4)CC3)ccc21,inactive: 2.56%
19,Cc1cccc(-n2ncc(C(=O)N3CCN(Cc4ccccc4)CC3)c2C2CCN(C(=O)OC(C)(C)C)CC2)c1,inactive: -13.2%
